Assay results: paper PMC6925247
These are yes or no findings as the source states them, for the method shown. In cells and extracts the contact can be indirect. Some entries that bind do so weakly or less than the wild type. For part of these data: Sequences can lack the tags named with a protein.

By UniProt entry, the sequences of proteins in these tests, tags left out.
UniProt P05198: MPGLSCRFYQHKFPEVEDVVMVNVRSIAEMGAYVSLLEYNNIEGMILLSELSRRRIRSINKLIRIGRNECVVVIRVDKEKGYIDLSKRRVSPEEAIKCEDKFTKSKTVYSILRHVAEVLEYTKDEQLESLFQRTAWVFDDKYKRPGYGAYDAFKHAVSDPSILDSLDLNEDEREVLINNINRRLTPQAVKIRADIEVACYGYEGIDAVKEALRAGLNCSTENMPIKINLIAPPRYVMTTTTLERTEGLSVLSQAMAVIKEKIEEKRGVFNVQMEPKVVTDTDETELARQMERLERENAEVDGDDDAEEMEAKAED

Tests used:
[1] = biological target: T1, TOR signaling pathway regulator-like (TIPRL) protein (human (endogenous in A549)) (UniProt O75663); assay: co-IP; IP of A549 cell lysates with anti-TIPRL antibody and protein G-agarose, 2 h at 4 °C, washed with TBS, Western blot; endogenous proteins; cells untreated or incubated in EBSS for 2 h
T1 sequence: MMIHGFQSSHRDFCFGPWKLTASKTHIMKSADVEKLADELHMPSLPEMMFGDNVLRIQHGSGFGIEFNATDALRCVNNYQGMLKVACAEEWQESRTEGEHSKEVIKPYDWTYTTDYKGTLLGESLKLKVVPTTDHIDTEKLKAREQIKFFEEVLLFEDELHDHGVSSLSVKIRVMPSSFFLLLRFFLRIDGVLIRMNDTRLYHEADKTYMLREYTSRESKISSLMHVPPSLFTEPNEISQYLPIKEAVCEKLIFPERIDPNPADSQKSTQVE

HA-tagged TIPRL (human) [2] = biological target: T2, HA-tagged TIPRL (human) (UniProt O75663); assay: co-IP; IP with anti-HA antibody of lysates of 293T cells transfected with gradual concentration of HA-tagged TIPRL; endogenous eIF2α detected by Western blot
T2 sequence: T1 sequence

HA-tagged TIPRL (human) [3] = biological target: T2, HA-tagged TIPRL (human); assay: co-IP; IP with anti-HA antibody of 293T cells co-transfected with HA-TIPRL along with GST-Mock, GST-eIF2α, GST-eIF2β or GST-eIF2γ; Western blot
[4] = biological target: eukaryotic initiation factor 2α (eIF2α) (human (endogenous in A549)) (UniProt P05198); assay: co-IP; IP assay of A549 cells mixed with synthetic TIPRL-mimic peptides (86–100 or 174–188); endogenous eIF2α; only the binder purified
GST-eIF2α (human) = GST-eIF2α (human) (UniProt P05198); assay: pull-down; GST precipitated from lysates of 293T cells co-transfected with GST-tagged eIF2 subunits and HA-tagged TIPRL or its deletion mutants; Western blot

eukaryotic initiation factor 2α (eIF2α) (from UniProt P05198 1-315)
binding [1]: binds

endogenous eIF2α in 293T cells (from UniProt P05198 1-315)
binding (HA-tagged TIPRL (human) [2]): binds

GST-eIF2α (from UniProt P05198 1-315)
binding (HA-tagged TIPRL (human) [3]): binds

VMPSSFFLLLRFFLR (peptide, UniProt O75663 174-188, fluorescein isothiocyanate (FITC) tag, end not stated) [TIPRL mimic peptide (174–188 amino acids)]
binding [4]: binds

B1: HA-tagged TIPRL (protein, UniProt O75663 1-272)
chain: T1 sequence
binding (GST-eIF2α (human)): binds

ACAEEWQESRTEGEH (peptide, UniProt O75663 86-100) [Negative Control peptide (86–100 amino acids)]
binding [4]: no binding
